From PMC10726135
The other results are listed elsewhere or left out. At the low end of the ranking the order means little. The protein was read in a cell extract, so binding may be indirect.

molecular target: T1, HNF4alpha8 (COS-7 nuclear extract) (UniProt P41235-5); assay: protein-binding microarray; settings: COS-7 nuclear extract on double-stranded Agilent 4x180k PBM; binding buffer, salt, pH and temperature not given; high values mean tight binding; double strand, one strand shown; sequences stand for … in …GCCTAGGGAGATTAGAGTATCGGTCGA
T1 sequence: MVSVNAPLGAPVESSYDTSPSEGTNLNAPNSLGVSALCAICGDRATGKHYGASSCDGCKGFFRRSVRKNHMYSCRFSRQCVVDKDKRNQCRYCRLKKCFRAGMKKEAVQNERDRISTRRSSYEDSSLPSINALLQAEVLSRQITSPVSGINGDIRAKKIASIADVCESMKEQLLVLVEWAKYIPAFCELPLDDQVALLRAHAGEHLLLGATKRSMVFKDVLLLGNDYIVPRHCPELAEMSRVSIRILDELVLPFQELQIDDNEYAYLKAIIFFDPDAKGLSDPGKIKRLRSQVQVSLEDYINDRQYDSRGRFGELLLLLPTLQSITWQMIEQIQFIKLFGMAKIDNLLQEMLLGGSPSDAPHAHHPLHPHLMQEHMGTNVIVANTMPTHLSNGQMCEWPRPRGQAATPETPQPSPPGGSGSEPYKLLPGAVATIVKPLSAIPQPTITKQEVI

| Sequence | binding signal (log2 normalized intensity) |
| --- | --- |
| TGGGAGATATATGAGGGGTGTAAACCTGGT | 0.0482 |
| TGAAGCTCTCTTTGTGAAATGGGACCCAAC | 1.46 |
| GGCGCTTATCTGAGCACACACTCACGGACC | -1.49 |
| AGCCTCATCTGAGATAAGGCAAGTCCCTTC | -1.39 |
| ACCCCCATTCTTCCTGGTATCAGAGTGGAG | 1.16 |
| GGAGATGAGTGGGTTCACTTTGAGCAAGAT | 0.386 |
| AAACTATGCATGCTGTGTGTGTGTGTGTGT | 3.05 |
| AGATAAGATAGCACCAGCCCATTAATCAAG | -1.22 |
| CAGCGCTTTGGTAGGCTGTATGGCTGCACA | -1.32 |
| AAGCTTGGTATGCTTAAGTGGCTCACCCAA | -1.19 |
| ACCCAAATCAAAGTAACAAGAGGCAAAGGC | -1.29 |
| CTAAATTAGATATGGCTTATACTTGAGGTA | -0.932 |
| CCCGAGTGAGGCAATGCCTCGCCCTGCTTC | -1.33 |
| GACACCAGGGAACACACCATGTACAGAGAG | -1.3 |
| GAATGAAACGGATGCAAAGGCTGAGCCCTT | -1.34 |
| ATCATTGTGCAACCTGGACATTGGCTGATA | 2.57 |
| AGGTGTTTCAGATGGACCAAAGGTCTTGTA | 3.58 |
| CACTGATAAGTCTGCTTGCCATTAATGAAA | -1.06 |
| GACCTGTCTTCCTGGTGACCTTTGTTTGGT | 5.66 |
| AACAAGTAAAATGAGCAAACAGAACTGTTA | -1.39 |

| Sequence | binding signal (log2 normalized intensity) |
| --- | --- |
| AGGAATGTTCATTCATTCACCTTTCGCCCT | 3.68 |
| TGGCCTTGCTTTTCACAGTCGATCTTTGAC | 2.98 |
| TCTTTTCTAAGACATAACACAGGTGACCTT | 4.48 |
| TCCTTTCCTCCTATGTCAATAGAGCATGAG | -0.106 |
| TAAGGTGTTGAAAAGAGCATAAGGTTTCCA | -1.28 |
| AAGCAAACAAAACACGGACTTTGAAGCTCC | 3 |
| GTCAATAGTTGTGTAAATAGCTCAGGGACT | -1.3 |
| GTCCACACATTCCTAGACCTTTGACCTTTA | 8.88 |
| AATCTGCATCCCCAAGCTGTTATTCCAGGC | 2.02 |
| AGGTCAAAATATCTGATCGATATCCTAACC | 0.179 |
| TGCTGGTCAGGAGACTGCTCGGCATCCCTG | -1.31 |
| AGAGGTCGTGTCTCCATTCAGCATTGCTTG | -0.914 |
| GGGGGGAGACAACTGCAACAGGAGGACCTC | -1.32 |
| CTCGAGATAACCCACCTCCGGCCGGGAAGA | 0.392 |
| GAAAGGAAGATGCACATTCCCTCCAGCAGG | -1.32 |
| CAGCTGCAGGTGTGGGGGCGGCAGGAGCCA | -1.25 |
| CAGGAATGCCTTTTCTTTCATGTTGTTTAG | 1.7 |
| ATAAGGGAGTTTCAGAGGACTGCCCAGCTG | -1.26 |
| CTGGTTGACACTCGAGGATCAGAGACACGA | -1.32 |
| TACTGTCTTTTTGCCACTAGGGGTCACTGT | 4.57 |
